This is one part of the list. Most values come without repeats; read them as rough.
Assays:
Assay in all cases: cell count relative to DMSO control; melanoma cells; higher = more viable cells
Settings in all cases: library dose: low library concentration; 72 h
MZ2-MEL = test system: MZ2-MEL
MeWo = test system: MeWo
RPMI7951 = test system: RPMI7951
RVH-421 = test system: RVH-421
SkMel28 = test system: SkMel28
SkMel2 = test system: SkMel2
SkMel30 = test system: SkMel30
UACC62 = test system: UACC62
WM115 = test system: WM115
WM1716 = test system: WM1716
WM1745 = test system: WM1745
WM3526 = test system: WM3526
WM3619 = test system: WM3619
WM451Lu = test system: WM451Lu
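Further: cell number obtained by counting DAPI-stained nuclei in high-throughput microscope images with image analysis software, screen run in 1,536-well plates.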

Compound	cell count (MZ2-MEL)	cell count (MeWo)	cell count (RPMI7951)	cell count (RVH-421)	cell count (SkMel28)	cell count (SkMel2)	cell count (SkMel30)	cell count (UACC62)	cell count (WM115)	cell count (WM1716)	cell count (WM1745)	cell count (WM3526)	cell count (WM3619)	cell count (WM451Lu)
CS(=O)(=O)c1ccc(C(=O)Nc2ccc(Cl)c(-c3ccccn3)c2)c(Cl)c1 [vismodegib] + C[As](C)SC[C@H](NC(=O)CC[C@H](N)C(=O)O)C(=O)NCC(=O)O [Darinaparsin] (first compound 1 µM, partner dose 0.4 µM)	114%	106%	118%	99.9%	102%	106%	101%	137%	118%	115%	120%	123%	107%	95.3%
CC1(C)CCC(c2ccc(Cl)cc2)=C(CN2CCN(c3ccc(C(=O)NS(=O)(=O)c4ccc(N[C@H](CCN5CCOCC5)CSc5ccccc5)c(S(=O)(=O)C(F)(F)F)c4)cc3)CC2)C1 + N.N.[Cl][Pt][Cl] [cisplatin] (first compound 0.4 µM, partner dose 1.6 µM)	86.6%	75.1%	63.4%	66.4%	80.2%	85.4%	65%	90.8%	78.5%	69.8%	8.89%	96.1%	67.6%	73.3%
Cc1cn(-c2cc(NC(=O)c3ccc(C)c(Nc4nccc(-c5cccnc5)n4)c3)cc(C(F)(F)F)c2)cn1 [nilotinib] + Cn1cc(C2=C(c3cn(C4CCN(Cc5ccccn5)CC4)c4ccccc34)C(=O)NC2=O)c2ccccc21 [Enzastaurin] (first compound 0.2 µM, partner dose 0.8 µM)	98.3%	116%	102%	74.1%	107%	95.4%	82.8%	83.3%	104%	123%	89%	120%	75.8%	119%
NC(=O)c1ccc(N(C(N)=O)c2c(F)cccc2F)nc1-c1ccc(F)cc1F + N.N.[Cl][Pt][Cl] [cisplatin] (first compound 0.4 µM, partner dose 1.6 µM)	92.3%	103%	100%	96.8%	83.3%	92.6%	103%	93.2%	90.6%	89.8%	88.1%	84.3%	109%	115%
COc1cc([C@@H]2c3cc4c(cc3[C@@H](O[C@@H]3O[C@@H]5CO[C@@H](C)O[C@H]5[C@H](O)[C@H]3O)[C@H]3COC(=O)[C@H]23)OCO4)cc(OC)c1O [etoposide] + Cn1cc(C2=C(c3cn(C4CCN(Cc5ccccn5)CC4)c4ccccc34)C(=O)NC2=O)c2ccccc21 [Enzastaurin] (first compound 0.02 µM, partner dose 0.8 µM)	95.8%	110%	81.1%	89.9%	85.2%	92.7%	120%	87.3%	100%	94.9%	106%	102%	101%	133%
CNC(=O)c1cc(Oc2ccc(NC(=O)Nc3ccc(Cl)c(C(F)(F)F)c3)cc2)ccn1 [sorafenib] + C[As](C)SC[C@H](NC(=O)CC[C@H](N)C(=O)O)C(=O)NCC(=O)O [Darinaparsin] (first compound 0.4 µM, partner dose 0.4 µM)	78.5%	78.1%	92.5%	78.8%	95.4%	95.6%	92%	75.9%	95.8%	90.4%	95.4%	101%	85.3%	124%
CC[C@]1(O)C[C@H]2CN(CCc3c([nH]c4ccccc34)[C@@](C(=O)OC)(c3cc4c(cc3OC)N(C=O)[C@H]3[C@@](O)(C(=O)OC)[C@H](OC(C)=O)[C@]5(CC)C=CCN6CC[C@]43[C@@H]65)C2)C1 [vincristine] + C[As](C)SC[C@H](NC(=O)CC[C@H](N)C(=O)O)C(=O)NCC(=O)O [Darinaparsin] (first compound 0.0001 µM, partner dose 0.4 µM)	79.9%	70.1%	42.2%	70.4%	60.3%	85.5%	48.8%	40.7%	44.8%	45.2%	84%	54.8%	34.7%	49.6%
Cc1cc(Nc2cc(N3CCN(C)CC3)nc(/C=C/c3ccccc3)n2)n[nH]1 + C[As](C)SC[C@H](NC(=O)CC[C@H](N)C(=O)O)C(=O)NCC(=O)O [Darinaparsin] (first compound 0.04 µM, partner dose 0.4 µM)	94.3%	84%	83%	95.7%	80.2%	86%	71.7%	80.4%	79.9%	98.4%	78.7%	88%	124%	90.8%
Cc1ccc(Nc2nccc(N(C)c3ccc4c(C)n(C)nc4c3)n2)cc1S(N)(=O)=O [Pazopanib] + N.N.[Cl][Pt][Cl] [cisplatin] (first compound 0.4 µM, partner dose 1.6 µM)	87.5%	96.1%	97.6%	91.2%	103%	106%	80.8%	117%	105%	94%	87.5%	87.5%	90.3%	81.5%
